Screen size: about 410,000 compounds; about 6,400 (1.6%) were called active. Inconclusive results, whose numbers are uncertain, are shown with a selection of clear calls. The call rests on the fitted dose curve; in most records, active means well fitted inhibition curve with a large enough effect; inconclusive means small, poorly fitted or top-dose-only effect; inactive means no such curve, though single readings can be large or run the other way. Potencies of inconclusive entries are doubtful fits and often do not repeat.
What follows are compounds tested against Glucagon-like peptide 1 receptor (Homo sapiens) (UniProt P43220) (assay: qHTS of GLP-1 Receptor Inverse Agonists (Inhibition Mode)). Details: HEK293 GLP-1R CRE-luciferase, luminescence, 24 h, GLP-1R form is constitutively active; activity change, negative = inhibition: at 38.3 µM (top of the series) unless noted.
In short: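 qHTS in 1536-well format: reporter HEK293 cells expressing constitutive GLP-1R activity in DMEM + 10% Nu serum, 24 hr with compounds at 37 deg C, luminescence read after 12 min with detection reagent.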
Further: nearly all actives have a fitted effect of over 55% in size.
On the % scale 0 is the no-effect control and ±100 the full control effect; potency means the concentration at half of the fitted maximal effect; tags describe the fitted curve by direction and shape.

Chain of UniProt P43220 (P43220 whole entry, looked up): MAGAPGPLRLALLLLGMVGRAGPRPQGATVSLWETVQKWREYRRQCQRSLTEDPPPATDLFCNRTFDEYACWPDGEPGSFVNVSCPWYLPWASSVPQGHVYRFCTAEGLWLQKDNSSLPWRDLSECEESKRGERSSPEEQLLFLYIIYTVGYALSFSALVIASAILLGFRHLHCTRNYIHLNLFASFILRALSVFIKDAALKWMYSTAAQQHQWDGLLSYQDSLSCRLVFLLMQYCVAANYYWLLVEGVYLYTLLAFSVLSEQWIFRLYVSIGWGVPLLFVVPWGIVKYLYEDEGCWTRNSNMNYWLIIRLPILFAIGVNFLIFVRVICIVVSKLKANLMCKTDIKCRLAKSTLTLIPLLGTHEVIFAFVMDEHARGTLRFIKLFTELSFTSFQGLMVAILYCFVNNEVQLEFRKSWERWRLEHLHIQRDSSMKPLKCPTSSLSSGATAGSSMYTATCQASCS

Activity change, negative = inhibition, inactive:
Cc1c(C(c2cc(O)ccc2O)c2c(C)n(C)n(-c3ccccc3)c2=O)c(=O)n(-c2ccccc2)n1C 42.4%
CCOC(=O)N1CCC(NC(=O)c2ccc3c(c2)N(Cc2ccc(Cl)cc2)C(=O)c2ccccc2S3=O)CC1 (stereo unspecified) -16.2%
CCOC(=O)c1cccc(NC(=O)c2sc3nc[nH]c(=O)c3c2C)c1 7.17%
Nc1nc(N)c(S(=O)(=O)c2ccccc2)c(Nc2ccc(F)cc2)n1 -0.0487%
Nc1ccn([C@@H]2O[C@H](CNCC3=CCOc4ccc(O)cc43)[C@@H](O)[C@H]2O)c(=O)n1 -8.6%
Cc1ccc(-c2n[nH]c(=S)c3ccccc23)cc1 19.9%
Cc1ccccc1Cn1c(C)c(C(=O)NCc2cccc(C(F)(F)F)c2)sc1=O -0.425%
CC(C)(C)c1ccc(C(=O)NNC(=S)NCc2ccco2)cc1 -8.11%
Cc1cc(N2CCN(c3nnnn3-c3ccccc3)CC2)n2ncnc2n1 3.89%
CC(C)c1ccc(/C=C(\C#N)c2nc(-c3ccc(O)cc3)cs2)cc1 -12.4%
CCOc1ccc(N(CC(=O)NCC2CCCO2)S(=O)(=O)c2ccc(Cl)cc2)cc1 (stereo unspecified) -9.32%
COc1ccc(C(=O)Nc2ccccc2C(=O)OCc2cc(=O)n3nc(C4CC4)sc3n2)cc1 6.23%
Cc1cccc(NC(=O)N(C)Cc2cccs2)c1 -0.563%
CCCCN(CC)Cc1ccc(CNS(=O)(=O)c2cc3c(cc2Cl)NC(=O)CO3)o1 -7.74%
CC[C@@]1(C(=O)OC)N[C@H](CN(C)S(=O)(=O)c2ccc(C(C)(C)C)cc2)[C@@H]2C(=O)N(C)C(=O)[C@@H]21 4.33%
CCOC(=O)c1sc(C)c2c(=O)n(CC(=O)c3ccc(Br)cc3)nnc12 -4.72%
COC(=O)c1ccc(Cn2c(SCC(=O)Nc3ccc(F)cc3)nc3ccccc32)cc1 7.36%
CCNC(=S)NC(=NCc1cccnc1)Nc1nc(C)cc(C)n1 41.9%
Cc1ccc(Cn2c(C(=O)NCCCN3CCOCC3)cc3sccc32)cc1 0%

Activity change, negative = inhibition, inconclusive:
CN(C)CCN(C)Cc1c2ccccc2c(CN(C)CCN(C)C)c2ccccc12 -70.4% [inhibitor]

Potency, inconclusive:
CCOC(=O)C1(c2ccccc2)NC(c2ccccc2C)C2C(=O)N(c3ccc4c(c3)OCO4)C(=O)C21 (stereo unspecified) 8.91 µM [inhibitor, partial curve, poor fit]
COc1ccc(NC(=S)NCCc2ccccc2OC)c(OC)c1 31.6 µM [inhibitor, single point]
Brc1ccccc1-c1nnc(SCc2nc3ccccc3s2)o1 10 µM [inhibitor, partial curve, poor fit]
Cc1cccc(NS(=O)(=O)c2cccc(C(=O)NCC(c3ccco3)N3CCCCC3)c2)c1 (stereo unspecified) 12.6 µM [inhibitor, partial curve, poor fit]
CCN(CC)CCN(C(=O)CCS(=O)(=O)c1ccccc1)c1nc2cc(C)cc(C)c2s1 3.55 µM [inhibitor, partial curve, poor fit]
CCOC(=O)C1(Cc2ccccc2C)CCCN(C(=O)c2ccc(COC)o2)C1 (stereo unspecified) 10 µM [inhibitor, partial curve, poor fit]
COc1ccc(-c2nc3c4ccccc4ccn3c2Cc2ccccc2C(F)(F)F)cc1OC 28.2 µM [inhibitor, single point]
Cc1cc(C)cc(NC(=O)c2cccc(NC(=O)c3ccco3)c2)c1 11.2 µM [inhibitor, single point]
COc1cccc(-c2cc3nc(-c4ccccc4)cc(N4CCCC(O)C4)n3n2)c1 (stereo unspecified) 10 µM [inhibitor, partial curve, poor fit]
CCc1cc2c(=O)n(Cc3ccco3)c(SCC(=O)N3CCCc4ccccc43)nc2s1 28.2 µM [inhibitor, single point]
CCc1ccc2occ(CC(=O)N(Cc3ccc(N(C)C)cc3)C3CCS(=O)(=O)C3)c2c1 (stereo unspecified) 10 µM [inhibitor, partial curve, poor fit]
Cc1ccccc1N1CCN(C2CCCN(C(=O)c3ccc(Cl)s3)C2)CC1 (stereo unspecified) 10 µM [inhibitor, partial curve, poor fit]
CC(NC(=O)C(C)N1c2cccc3cccc(c23)S1(=O)=O)c1ccccc1 (stereo unspecified) 28.2 µM [inhibitor, single point]
CN(c1ccccc1)S(=O)(=O)c1ccc(Cl)c(C(=O)NCc2ccco2)c1 10 µM [inhibitor, partial curve, poor fit]
CCOC(=O)c1c(Nc2cccc(C)c2)nnc(-c2ccccc2)c1-c1ccccc1 10 µM [inhibitor, partial curve, poor fit]
CN1CCN(c2ccc(CNC(=O)c3cc4ccccc4o3)cc2)CC1 1 µM [inhibitor, full curve, poor fit]
COc1ccccc1NC(=S)NC(NC(=O)C(C)C)C(Cl)(Cl)Cl (stereo unspecified) 7.08 µM [inhibitor, partial curve]
Cc1ccc2c(c1)[C@H]1[C@H](CO2)[C@H](c2ccccc2)[C@]2(C)C(=O)N(Cc3ccco3)CC(=O)N12 14.1 µM [inhibitor, single point]
O=S(=O)(c1ccccc1)N1CCCC1c1nc2ccccc2s1 (stereo unspecified) 10 µM [inhibitor, partial curve]
Cc1ccc2cc3c(N)c(C(=O)N4CCOCC4)sc3nc2c1 14.1 µM [inhibitor, single point]
CCOc1cccc(/C=N/NC(=O)c2cc(-c3cccn3C)n[nH]2)c1O 6.31 µM [inhibitor, partial curve, poor fit]
COc1ccc(C(=O)/C=C/NCc2ccc(C)cc2)cc1 14.1 µM [inhibitor, single point]
CCCCc1nc(NCCO)c(C#N)c2c1CCCC2 11.2 µM [inhibitor, single point]
CC(C)(C)C(=O)CN1C(=O)NC(c2ccccc2)(c2ccccc2)C1=O 8.91 µM [inhibitor, partial curve, poor fit]
Cc1nc(NCCc2ccccc2)c2oc3ccccc3c2n1 28.2 µM [inhibitor, single point]
N#Cc1ccc(C(=O)N(Cc2ccccc2)c2ccccc2)cc1 10 µM [inhibitor, partial curve, poor fit]
Cc1noc(C)c1COc1ccc(C(=O)OCc2nnc(-c3ccc(Cl)cc3)o2)cc1 12.6 µM [inhibitor, single point]
CCOc1cccc2sc(N(CCCN(C)C)C(=O)c3ccc(C(=O)c4ccccc4)cc3)nc12 7.08 µM [inhibitor, partial curve, poor fit]
CCCCOc1ccc(C(=O)Nc2ccc3c(c2)CCCN3S(=O)(=O)c2ccc(C)cc2)cc1 2.24 µM [inhibitor, full curve, poor fit]
Cc1cc(NC(=O)CSc2cn(CC(=O)N(C(C)C)C(C)C)c3ccccc23)no1 11.2 µM [inhibitor, single point]
Cc1ccc([N+](=O)[O-])cc1NC(=S)NC(=O)CC(C)(C)C 6.31 µM [inhibitor, partial curve, poor fit]
CC(=O)N(C1CC(C)C(C#N)(C#N)C1(C#N)C#N)N(C)C (stereo unspecified) 28.2 µM [inhibitor, single point]
CCCCOc1ccc(N(CC(=O)NCc2ccccc2)C(=O)c2csnn2)cc1 28.2 µM [inhibitor, single point]
O=C(c1ccccc1CCc1ccccc1)N1CCCC1 28.2 µM [inhibitor, single point]
Cc1csc(SCC(=O)Nc2ccc(Cl)cn2)n1 31.6 µM [inhibitor, single point]
C/C(=C\C(=O)c1ccc(Br)cc1)Nc1cccc(Cl)c1 10 µM [inhibitor, partial curve, poor fit]
O=C(NCCc1ccccc1)c1n[nH]c2ccccc12 28.2 µM [inhibitor, single point]
CC(/C=N/NC(=O)c1cc(C(C)(C)C)[nH]n1)=C\c1ccccc1 2.51 µM [inhibitor, full curve, poor fit]
O=C(CSc1nnnn1-c1ccc(O)cc1)c1ccc(F)cc1 28.2 µM [inhibitor, single point]
Cc1cc(C(=O)OCn2nnc3ccccc3c2=O)c(C)o1 1.26 µM [inhibitor, full curve, poor fit]
COc1ccc(/C=N/Nc2nc(-c3ccc(Cl)cc3)cc(C(F)(F)F)n2)cc1OC 10 µM [inhibitor, single point]
Cc1ccc(N(C(=O)c2ccco2)C(C(=O)NC2CCCC2)c2ccco2)c(C)c1 (stereo unspecified) 28.2 µM [inhibitor, single point]
O=C(N/N=C/c1cc(Br)cc(Br)c1O)c1cccc(N2CCCC2=O)c1 2.82 µM [inhibitor, full curve, poor fit]

Potency, active:
O=C(OCCOc1ccccc1Cl)c1cc(S(=O)(=O)N2CCCCC2)ccc1N1CCOCC1 4.47 µM
Cc1ccccc1NC(NC(=O)c1cccs1)C(Cl)(Cl)Cl (stereo unspecified) 7.94 µM
O=C(C1CCCCC1)N(Cc1cccnc1)c1nc2ccc(F)cc2s1 11.2 µM
